{"source": "the supplement of paper PMC12355420", "details_in_all_cases": "50 µM; 24 h", "key": {"[1]": {"system": "HeLa VPS33A reporter cells", "test": "relative cell viability (CellMask signal) vs DMSO (fraction of DMSO); higher = less cytotoxic"}, "[2]": {"system": "HeLa VPS33A R498W KI + HA-SDC1-FLAG", "test": "relative GAG core protein HA-SDC1 amount per cell number vs DMSO (fraction of DMSO); higher = more SDC1 (GAG core protein)"}, "[3]": {"system": "HeLa VPS33A KO + NLuc-VPS33A R498W", "test": "relative mutant VPS33A R498W amount (NanoLuc luminescence) vs DMSO (fraction of DMSO); HeLa model of a glycosaminoglycan (GAG) storage disease; KI is knock-in and KO knock-out; SDC1 is syndecan 1; higher = higher mutant VPS33A level"}}, "note": "Where a name gives a salt, the structure may show the parent alone. This is one part of the list. Rule as the data show it: active = 0.5 or less and inactive = the rest. Repeats are few or missing, and single values can be far off.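 For relative GAG core protein HA-SDC1 amount per cell number vs DMSO in this document: HA-SDC1 level read out by In-Cell Western staining with an anti-HA antibody against the N-terminal tag, screening FDA-approved library drugs.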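 For relative cell viability (CellMask signal) vs DMSO in this document: primary screen of an FDA-approved drug library in HeLa reporter cells in 96-well format, CellMask signal normalized to DMSO-treated wells set as 1, under 0.5 deemed highly cytotoxic.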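 For relative mutant VPS33A R498W amount (NanoLuc luminescence) vs DMSO in this document: screen of an FDA-approved drug library, NanoLuc luminescence read after lysing the treated cells, taken as a measure of mutant VPS33A protein stability.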", "data": [{"compound": "Cc1ccc(Nc2nccc(N(C)c3ccc4c(C)n(C)nc4c3)n2)cc1S(N)(=O)=O", "values": [{"measurement": "relative cell viability", "setting": "[1]", "result": 1.09}, {"measurement": "relative GAG core protein HA-SDC1 amount per cell number", "setting": "[2]", "result": "inactive: 1.37"}, {"measurement": "relative mutant VPS33A R498W amount", "setting": "[3]", "result": 1}]}, {"compound": "CC(C)(C(=O)c1cccnc1)c1cccnc1", "note": "[Metyrapone]", "values": [{"measurement": "relative cell viability", "setting": "[1]", "result": 1.1}, {"measurement": "relative GAG core protein HA-SDC1 amount per cell number", "setting": "[2]", "result": "inactive: 0.793"}, {"measurement": "relative mutant VPS33A R498W amount", "setting": "[3]", "result": 1.04}]}, {"compound": "CCN(CC)Cc1cc(Nc2ccnc3cc(Cl)ccc23)ccc1O", "note": "[Amodiaquine dihydrochloride dihydrate]", "values": [{"measurement": "relative cell viability", "setting": "[1]", "result": 1.08}, {"measurement": "relative GAG core protein HA-SDC1 amount per cell number", "setting": "[2]", "result": "inactive: 0.875"}, {"measurement": "relative mutant VPS33A R498W amount", "setting": "[3]", "result": 2.9}]}, {"compound": "CC(C)[N+]1(C)[C@@H]2CC[C@H]1C[C@@H](OC(=O)C(CO)c1ccccc1)C2", "note": "(some centres undefined) [Ipratropium Bromide]", "values": [{"measurement": "relative cell viability", "setting": "[1]", "result": 0.997}, {"measurement": "relative GAG core protein HA-SDC1 amount per cell number", "setting": "[2]", "result": "inactive: 1.8"}, {"measurement": "relative mutant VPS33A R498W amount", "setting": "[3]", "result": 1.21}]}, {"compound": "Cc1c(C)c2c(c(C)c1O)CCC(C)(COc1ccc(CC3SC(=O)NC3=O)cc1)O2", "note": "(centres undefined) [Troglitazone]", "values": [{"measurement": "relative cell viability", "setting": "[1]", "result": 1.09}, {"measurement": "relative GAG core protein HA-SDC1 amount per cell number", "setting": "[2]", "result": "inactive: 1.24"}, {"measurement": "relative mutant VPS33A R498W amount", "setting": "[3]", "result": 1.38}]}, {"compound": "CCOC(=O)[C@H](CCc1ccccc1)N[C@@H](C)C(=O)N1C(=O)N(C)C[C@H]1C(=O)O", "note": "[Imidapril HCl]", "values": [{"measurement": "relative cell viability", "setting": "[1]", "result": 1.08}, {"measurement": "relative GAG core protein HA-SDC1 amount per cell number", "setting": "[2]", "result": "inactive: 1.3"}, {"measurement": "relative mutant VPS33A R498W amount", "setting": "[3]", "result": 1.09}]}, {"compound": "CC(N)C12CC3CC(CC(C3)C1)C2", "note": "(centres undefined) [Rimantadine Hydrochloride]", "values": [{"measurement": "relative cell viability", "setting": "[1]", "result": 1.07}, {"measurement": "relative GAG core protein HA-SDC1 amount per cell number", "setting": "[2]", "result": "inactive: 0.84"}, {"measurement": "relative mutant VPS33A R498W amount", "setting": "[3]", "result": 0.996}]}, {"compound": "CC(O)c1cc(C(=O)N[C@@H](C)Cn2ccc(-c3ccc(C#N)c(Cl)c3)n2)n[nH]1", "note": "(some centres undefined)", "values": [{"measurement": "relative cell viability", "setting": "[1]", "result": 1.01}, {"measurement": "relative GAG core protein HA-SDC1 amount per cell number", "setting": "[2]", "result": "active: 0.495"}, {"measurement": "relative mutant VPS33A R498W amount", "setting": "[3]", "result": 0.46}]}, {"compound": "CCCC(=O)Nc1ccc(OCC(O)CNC(C)C)c(C(C)=O)c1", "note": "(centres undefined) [Acebutolol HCl]", "values": [{"measurement": "relative cell viability", "setting": "[1]", "result": 1.23}, {"measurement": "relative GAG core protein HA-SDC1 amount per cell number", "setting": "[2]", "result": "inactive: 0.774"}, {"measurement": "relative mutant VPS33A R498W amount", "setting": "[3]", "result": 0.938}]}, {"compound": "CC(=O)S[C@@H]1CC2=CC(=O)CC[C@]2(C)[C@H]2CC[C@@]3(C)[C@@H](CC[C@@]34CCC(=O)O4)[C@H]12", "note": "[Spironolactone]", "values": [{"measurement": "relative cell viability", "setting": "[1]", "result": 1.17}, {"measurement": "relative GAG core protein HA-SDC1 amount per cell number", "setting": "[2]", "result": "inactive: 0.818"}, {"measurement": "relative mutant VPS33A R498W amount", "setting": "[3]", "result": 0.8}]}, {"compound": "C[C@@H](O)[C@H]1C(=O)N2C(C(=O)O)=C(S[C@@H]3CN[C@H](C(=O)N(C)C)C3)[C@H](C)[C@H]12", "note": "[Meropenem]", "values": [{"measurement": "relative cell viability", "setting": "[1]", "result": 0.964}, {"measurement": "relative GAG core protein HA-SDC1 amount per cell number", "setting": "[2]", "result": "inactive: 1.4"}, {"measurement": "relative mutant VPS33A R498W amount", "setting": "[3]", "result": 1.19}]}, {"compound": "C[C@@H]1NC(=O)[C@@H](N)CNC(=O)[C@H](C2CCNC(=N)N2)NC(=O)/C(=C/NC(N)=O)NC(=O)[C@H](CNC(=O)CC(N)CCCN)NC1=O.N=C1NCC[C@H]([C@@H]2NC(=O)/C(=C/NC(N)=O)NC(=O)[C@H](CNC(=O)C[C@@H](N)CCCN)NC(=O)[C@H](CO)NC(=O)[C@@H](N)CNC2=O)N1", "note": "[Capreomycin Sulfate]", "values": [{"measurement": "relative cell viability", "setting": "[1]", "result": 1.03}, {"measurement": "relative GAG core protein HA-SDC1 amount per cell number", "setting": "[2]", "result": "inactive: 1.32"}, {"measurement": "relative mutant VPS33A R498W amount", "setting": "[3]", "result": 0.974}]}, {"compound": "CN(C)CCCN1c2ccccc2Sc2ccc(Cl)cc21", "note": "[Chlorpromazine HCl]", "values": [{"measurement": "relative cell viability", "setting": "[1]", "result": 0.701}, {"measurement": "relative GAG core protein HA-SDC1 amount per cell number", "setting": "[2]", "result": "active: 0.324"}, {"measurement": "relative mutant VPS33A R498W amount", "setting": "[3]", "result": 0.278}]}, {"compound": "CC[C@H]1OC(=O)C[C@@H](O)[C@H](C)[C@@H](O[C@@H]2O[C@H](C)[C@@H](O)[C@H](N(C)C)[C@H]2O)[C@@H](CCN2C[C@H](C)C[C@H](C)C2)C[C@@H](C)C(=O)/C=C/C(C)=C/[C@@H]1CO[C@@H]1O[C@H](C)[C@@H](O)[C@@H](OC)[C@H]1OC", "note": "[Tilmicosin]", "values": [{"measurement": "relative cell viability", "setting": "[1]", "result": 1.09}, {"measurement": "relative GAG core protein HA-SDC1 amount per cell number", "setting": "[2]", "result": "inactive: 0.9"}, {"measurement": "relative mutant VPS33A R498W amount", "setting": "[3]", "result": 0.748}]}, {"compound": "CN(C)CC(c1ccc(O)cc1)C1(O)CCCCC1", "note": "(centres undefined) [Desvenlafaxine Succinate]", "values": [{"measurement": "relative cell viability", "setting": "[1]", "result": 1.02}, {"measurement": "relative GAG core protein HA-SDC1 amount per cell number", "setting": "[2]", "result": "inactive: 0.803"}, {"measurement": "relative mutant VPS33A R498W amount", "setting": "[3]", "result": 1.14}]}, {"compound": "CCOC(=O)C1=C[C@@H](OC(CC)CC)[C@H](NC(C)=O)[C@@H](N)C1", "note": "[Oseltamivir]", "values": [{"measurement": "relative cell viability", "setting": "[1]", "result": 0.995}, {"measurement": "relative GAG core protein HA-SDC1 amount per cell number", "setting": "[2]", "result": "inactive: 1.31"}, {"measurement": "relative mutant VPS33A R498W amount", "setting": "[3]", "result": 1.23}]}, {"compound": "CC(C)NCC(O)COc1ccc(COCCOC(C)C)cc1", "note": "(centres undefined) [Bisoprolol fumarate]", "values": [{"measurement": "relative cell viability", "setting": "[1]", "result": 1.24}, {"measurement": "relative GAG core protein HA-SDC1 amount per cell number", "setting": "[2]", "result": "inactive: 0.902"}, {"measurement": "relative mutant VPS33A R498W amount", "setting": "[3]", "result": 1.31}]}, {"compound": "CCOc1nc2cccc(C(=O)OCc3oc(=O)oc3C)c2n1Cc1ccc(-c2ccccc2-c2noc(=O)[nH]2)cc1", "note": "[Azilsartan Medoxomil]", "values": [{"measurement": "relative cell viability", "setting": "[1]", "result": 1.05}, {"measurement": "relative GAG core protein HA-SDC1 amount per cell number", "setting": "[2]", "result": "inactive: 0.828"}, {"measurement": "relative mutant VPS33A R498W amount", "setting": "[3]", "result": 1.2}]}, {"compound": "O=c1cc[nH]c(=S)[nH]1", "note": "[2-Thiouracil]", "values": [{"measurement": "relative cell viability", "setting": "[1]", "result": 1.1}, {"measurement": "relative GAG core protein HA-SDC1 amount per cell number", "setting": "[2]", "result": "inactive: 0.833"}, {"measurement": "relative mutant VPS33A R498W amount", "setting": "[3]", "result": 1.39}]}, {"compound": "CC(C)(C)C(O)/C=C/c1ccc2c(c1)OCO2", "note": "(centres undefined) [Stiripentol]", "values": [{"measurement": "relative cell viability", "setting": "[1]", "result": 0.96}, {"measurement": "relative GAG core protein HA-SDC1 amount per cell number", "setting": "[2]", "result": "active: 0.334"}, {"measurement": "relative mutant VPS33A R498W amount", "setting": "[3]", "result": 0.139}]}, {"compound": "C[C@H](CS)C(=O)N1CCC[C@H]1C(=O)O", "note": "[Captopril]", "values": [{"measurement": "relative cell viability", "setting": "[1]", "result": 1.05}, {"measurement": "relative GAG core protein HA-SDC1 amount per cell number", "setting": "[2]", "result": "inactive: 1.25"}, {"measurement": "relative mutant VPS33A R498W amount", "setting": "[3]", "result": 1.16}]}, {"compound": "c1ccc(CN(CC2=NCCN2)c2ccccc2)cc1", "note": "[Antazoline HCl]", "values": [{"measurement": "relative cell viability", "setting": "[1]", "result": 0.912}, {"measurement": "relative GAG core protein HA-SDC1 amount per cell number", "setting": "[2]", "result": "inactive: 0.783"}, {"measurement": "relative mutant VPS33A R498W amount", "setting": "[3]", "result": 0.943}]}, {"compound": "N=C(N)NC(=O)c1nc(Cl)c(N)nc1N", "note": "[Amiloride HCl dihydrate]", "values": [{"measurement": "relative cell viability", "setting": "[1]", "result": 1.1}, {"measurement": "relative GAG core protein HA-SDC1 amount per cell number", "setting": "[2]", "result": "inactive: 0.81"}, {"measurement": "relative mutant VPS33A R498W amount", "setting": "[3]", "result": 1.32}]}]}
